Test results reported in article PMC4336329 (PLoS ONE, 2015).
Out of some 310,000 compounds screened, about 14,000 (4.5%) showed an effect of 50% or more. Effects have a minus sign here. This is one part of the list.

target: human ether-à-go-go-related gene (hERG) potassium channel (human, UniProt Q12809); assay: primary screen, population patch clamp on CHO cells stably expressing hERG
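Note: peak tail current of the secondary pulse compared with the same well before compound.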

Chain of human ether-à-go-go-related gene (hERG) potassium channel (Q12809 whole entry, looked up): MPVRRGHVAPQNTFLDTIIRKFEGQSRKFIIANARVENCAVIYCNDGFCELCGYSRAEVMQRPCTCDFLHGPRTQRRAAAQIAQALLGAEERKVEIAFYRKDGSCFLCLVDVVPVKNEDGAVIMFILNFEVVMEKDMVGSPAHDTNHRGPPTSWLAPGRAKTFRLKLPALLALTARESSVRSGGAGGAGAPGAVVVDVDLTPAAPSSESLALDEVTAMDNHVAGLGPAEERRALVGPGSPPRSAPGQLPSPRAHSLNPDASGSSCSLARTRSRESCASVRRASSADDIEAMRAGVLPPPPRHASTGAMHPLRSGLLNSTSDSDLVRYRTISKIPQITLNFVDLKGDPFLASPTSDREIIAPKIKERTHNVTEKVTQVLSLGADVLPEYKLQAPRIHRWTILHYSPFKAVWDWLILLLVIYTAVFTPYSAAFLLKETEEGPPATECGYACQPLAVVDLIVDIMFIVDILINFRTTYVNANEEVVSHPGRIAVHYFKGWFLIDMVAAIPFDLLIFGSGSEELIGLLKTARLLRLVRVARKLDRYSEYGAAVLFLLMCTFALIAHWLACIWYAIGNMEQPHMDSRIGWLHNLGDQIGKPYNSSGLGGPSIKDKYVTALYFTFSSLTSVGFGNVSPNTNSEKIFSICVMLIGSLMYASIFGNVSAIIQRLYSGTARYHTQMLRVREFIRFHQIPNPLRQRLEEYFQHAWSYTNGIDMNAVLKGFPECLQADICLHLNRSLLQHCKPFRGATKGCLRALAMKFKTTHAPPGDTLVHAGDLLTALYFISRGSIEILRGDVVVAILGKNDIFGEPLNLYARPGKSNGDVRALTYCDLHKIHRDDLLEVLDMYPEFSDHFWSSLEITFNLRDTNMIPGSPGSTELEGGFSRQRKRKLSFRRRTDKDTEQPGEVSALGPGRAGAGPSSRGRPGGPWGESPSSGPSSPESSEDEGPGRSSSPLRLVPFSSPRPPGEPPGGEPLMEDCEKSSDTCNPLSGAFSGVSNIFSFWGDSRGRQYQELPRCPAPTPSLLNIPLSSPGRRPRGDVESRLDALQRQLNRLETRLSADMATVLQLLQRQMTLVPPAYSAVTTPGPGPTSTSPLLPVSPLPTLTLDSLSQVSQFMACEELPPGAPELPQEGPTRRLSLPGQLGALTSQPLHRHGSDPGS

Structure (SMILES)	hERG current change (%, negative = inhibition) at 10uM
N#CC1CN(Cc2ccccc2)CN(Cc2ccccc2)C1	-0.854%
Cc1ccc(N2CCN(CC(O)COC3CCCCC3)CC2)cc1 (stereo not shown)	-56.1%
N#CCCn1c(O)c(N=NC(=O)CNC(=O)c2cccs2)c2ccccc21	-22.9%
N#Cc1cc([N+](=O)[O-])ccc1N1CCCC1	-38%
CCN(CC)C(=O)C(=O)c1cccn1-c1ccccc1C#N	-2.5%
CNC(=O)c1csc(-c2cccs2)n1	4.14%
CC(=O)NC(C)c1cc(F)c2cccnc2c1O (stereo not shown)	-8.75%
CCOC(=O)C1=C(O)C(=O)N(c2ccccc2)C1c1cccc([N+](=O)[O-])c1 (stereo not shown)	-26.7%
Cc1c(Cl)cnc(NC(=O)COC(=O)C2CC3CCCC(C2)C3=O)c1Cl (stereo not shown)	-4.81%
Cc1ccc(NC(=O)c2cc(S(=O)(=O)N3CCOCC3)cs2)cc1	-8.31%
COc1ccccc1CNC(=O)COc1ccc(S(=O)(=O)N2CCCC2)cc1	-5.44%
Cc1cc(-c2n[nH]c(=S)n2/N=C/c2ccc(Cl)c([N+](=O)[O-])c2)n[nH]1	15.1%
NC(=O)c1cccc(S(=O)(=O)N2CC(c3ccccc3)CC2=O)c1 (stereo not shown)	-18.3%
O=C1CCN(Cc2ccc(O)cc2)CCN1[C@H](CO)c1ccccc1	-6.93%
COc1ccc2[nH]c(C(O)(Cc3cccnc3)Cc3cccnc3)cc2c1.O	-10%
CC(=C1C(=O)c2ccccc2C1=O)N1CCN(c2ccc(F)cc2)CC1	-69.8%
CC(C)(C)c1ccc(-c2nnc(SCC(=O)NC3CCS(=O)(=O)C3)n2N)cc1 (stereo not shown)	5.46%
Nc1ccccc1NC(=O)CCn1c(=S)[nH]c2ccccc2c1=O	6.13%
N#Cc1ccc(NC(=O)CSc2nc3[nH]c(=O)cc(O)c3s2)cc1	6.44%
CC(C)CCC(CCNCc1ccccn1)c1ccc2c(c1)OCO2.Cl (stereo not shown)	-75.5%
COc1ccc(CNC(=O)CN(C(=O)c2snc(C(N)=O)c2N)c2ccc(F)cc2)cc1	1.09%
Cl.OC(CN1CCNCC1)Cn1c2ccccc2c2ccccc21 (stereo not shown)	-6.23%
CCCC[C@@H]1CNCCN1CCc1cc(C(F)(F)F)cc(C(F)(F)F)c1	-10.7%

Structure (SMILES)	hERG current change (%, negative = inhibition) at 10uM
Cc1cc(-c2nnc3n2N=C(c2ccccc2)CS3)n[nH]1	-22.7%
COCCn1nnnc1C(c1cccs1)N1CCN(c2ccccc2)CC1 (stereo not shown)	-23.9%
CCOCCCNC(=O)c1cc2c(=O)n(CC)c3ccccc3c2s1	-22.2%
O=C(O)c1nn(-c2ccccc2C(F)(F)F)cc1O	-0.483%
COc1cc(/C=C2/C(=O)NN(c3ccc(F)cc3)C2=O)cc([N+](=O)[O-])c1O	12.4%
Cc1ccc(CC(=O)N2CCN(C)CC2)cc1	18.1%
CN(Cc1ccsc1)C(=O)Cn1cc(Br)ccc1=O	-10.3%
CCNC(=S)Nc1cc(C(=O)N2CCCC2)ccc1N1CCCC1	-10.3%
CCOc1ccc(CN2CCC(n3nccc3NC(=O)CCCc3ccccc3)CC2)cc1	-78.2%
Cc1cc(S(=O)(=O)Nc2ccc(C(=O)NCC3(N4CCCCC4)CCCCC3)cc2)ccc1F	-66.4%
CC(C)(C)NC(=O)NC(=O)COc1ccccn1	26.5%
O=C1CN(C(=O)COC(=O)c2ccco2)c2ccccc2N1	5.05%
COCCNC(=O)Cn1c(=O)n(Cc2ccco2)c(=O)c2ccccc21	-7.77%
O=S(=O)(c1ccccc1)c1nc(-c2cccs2)oc1NCCCn1ccnc1	-75.1%
CN(C)n1cnc2ccsc2c1=O	8.3%
CC(Cc1ccccc1)N/C=C1/CC(=O)NC1=O (stereo not shown)	-1.98%
CCCOc1ccccc1/C=C(\C#N)C(=O)Nc1cccc(C)n1	2.34%
CCCCNC(=S)Nc1cccc(S(=O)(=O)NC2=NCCC2)c1	8.65%
CC(C)N1C2OC(C3OC4C(O3)N(C(C)C)S(=O)(=O)N4C(C)C)OC2N(C(C)C)S1(=O)=O (stereo not shown)	2.27%
Cc1ccc(NC(=O)CCN2C(=O)c3ccccc3Sc3ncccc32)cc1	7.02%
Br.Cc1ccc(Cn2c(=N)n(CC(=O)c3ccc([N+](=O)[O-])cc3)c3ccccc32)cc1	-4.3%
CC(=O)c1ccc(NC(=O)CSc2nnc(Cn3cnc4ccccc43)o2)cc1	8.36%
COc1ccc(/C=N/NC(=O)Cn2ccnc2C)cc1OC	3.56%

Structure (SMILES)	hERG current change (%, negative = inhibition) at 10uM
O=C1C2C(c3ccccc3)C=CC(c3ccccc3)C2C(=O)N1C1CCCCC1 (stereo not shown)	16.1%
COc1ccc(C2(CNC(=O)/C=C\c3ccco3)CCCC2)cc1OC	-18.4%
C=C(C)Cn1c(SCC#N)nc2ccccc2c1=O	-2.08%
O=C(Cn1cnc2ccccc2c1=O)N1CCc2ccccc2C1	1.61%
CSc1ccc(C#N)cc1NC(=O)c1ccc(Cl)nc1	-18.3%
Cc1nn(CC2CC2)c(=O)n1-c1ccccc1	10%
O=C(c1cccc2c1-c1ccccc1C2)N1CCCCC1	-4.89%
CC(C)c1nn2c(=O)cc(COc3cccc(NC(=O)c4ccco4)c3)nc2s1	4.36%
CC(CCCCC(=O)Nc1ccc(C(F)(F)F)cc1)NCCc1cnc[nH]1.O=C(O)/C=C\C(=O)O (stereo not shown)	-10.2%
CC(C)Cc1ccc(C(C)C(=O)N2CCOCC2)cc1 (stereo not shown)	-15.7%
N=C1SCC(=O)N1c1ncc(Cc2ccc(F)cc2)s1	-13.1%
CC(C)OC(=O)C(C#N)c1nc2ccccc2nc1N1CCCC1 (stereo not shown)	7.04%
O=C1N=C(N2CCCC2)S/C1=C\c1ccccc1	15.2%
C(=Nc1cccc2c(N=Cc3ccco3)cccc12)c1ccco1	13.3%
Cc1c(Br)c([N+](=O)[O-])nn1CC(=O)Nc1ccc(C(N)=O)cc1	-2.84%
CCC(=O)OCC(=O)Nc1ccc(OC)cc1[N+](=O)[O-]	17.1%
CCOC(=O)c1cn(CC)c2ccc(S(=O)(=O)N3CCC(C)CC3)cc2c1=O	-26.8%
N=C(N)N1CCN(Cc2ccccc2)CC1.O=S(=O)(O)O	14.5%
CCOCCSC1=C(C#N)C(c2cccs2)C(C(C)=O)=C(C)N1 (stereo not shown)	-13.5%
COc1ccc(CNC(=O)COC(=O)c2nc3nc(C)cc(C)n3n2)cc1	-1.29%
Cc1cc(N/N=C/c2ccc(Cl)cc2Cl)nc(NCc2ccccc2)n1	12.9%
O=C(CNC(=O)c1ccc(Cl)cc1)OCc1nc2ccccc2s1	17.3%
COc1ccccc1NC(=O)CN(c1ccccc1F)S(C)(=O)=O	-0.409%

Structure (SMILES)	hERG current change (%, negative = inhibition) at 10uM
CCOC(=O)c1cc(CC)sc1NC(=O)C(c1ccccc1)c1ccccc1	10%
COc1ccc(-n2c(Cn3c(=O)sc4ccccc43)nnc2SCC(=O)N2CCCC2)cc1	-15.3%
O=C(c1ccc(OC2CCN(CCc3ccccc3)CC2)cc1)N1CCCC1	-30%
C/C(=C\C(=O)c1cccnc1)Nc1ccc(C)c(C)c1	-20%
CC(=O)Nc1ccc(SC[C@H](Cc2ccccc2)N2CC[C@@H](C(C)(C)C)CCC2=O)cc1	5.23%
O=C(CN1C(=O)NC(Cc2ccccc2)C1=O)Nc1ccc(OC(F)F)cc1 (stereo not shown)	-66.9%
Cc1ccc(S(=O)(=O)NC2=C(N3CCN(c4ccccc4F)CC3)C(=O)c3ccccc3C2=O)cc1	9.92%
CCc1nc(SCC(=O)NC2CC2)c2c(C)c(C)sc2n1	-0.782%
O=C(CCC1CCCCC1)Nc1ccccc1-c1ccccc1	-15.7%
Cc1ccc2sc(NNC(=O)C3=COCCO3)nc2c1C	-1.33%
C/C(=N\Nc1ccc(Cl)c(C(=O)O)c1)c1ccccn1	5.73%
CC(C)(C)c1ccc(-c2ncccc2O)cc1.Cl	13.7%
C=CCN1CCN(Cc2cnc(Cl)s2)CC1	9.96%
COc1ccc(N2CC(C(=O)N[C@@H](C)C(=O)N3CCCCC3)CC2=O)cc1 (stereo partly shown)	1.73%
CCO[C@@H]1OC(C(=O)N2CCCCCCC2)=C[C@H](c2ccc3c(c2)OCO3)[C@H]1CCCO	-8.7%
COC(=O)c1ccc(OCc2cc(=O)n3ccsc3n2)cc1	13.3%
CC(=O)Nc1ccc(CN(C)CC2CCCN(CCc3cccc(C(F)(F)F)c3)C2)cc1 (stereo not shown)	-68.4%
COc1ccccc1CNC(=O)Cc1cc(=O)[nH]c(=O)[nH]1	5.37%
Cl.O=C(c1ccc2c(c1)OCCO2)N1CCN(Cc2ccccc2)CC1	2.59%
Cc1nc(NS(=O)(=O)c2ccccc2)sc1C(C)(C)C	-15.5%
Clc1nc2nc3n(c2nc1Cl)CCC3	-22.8%
CCCN(S(=O)(=O)c1ccc(OCC)cc1)S(=O)(=O)c1cccs1	8.45%
